Here are results for 79 sequences from the supplement of paper PMC10126150.

This data set deals with ATP. As to the kind of experiment: switch fluorescence ratio, 500 uM ATP over buffer (Cy3 cluster intensity, sum of 5 cycles each) (fold (ratio)); higher = stronger signal-on switching upon ATP binding; sequences stand for … in TCGTCGGCAGCGTCAGATGTGTATAAGAGACAGTTTTTTTTTTTTTTTTTTTTTTTTT…TC. The conditions noted are these: aptamer strand: ATP DNA aptamer (quencher-CACCTGGGGGAGTATTGCGGAGGAAGG + anchor), 100 nM annealed; ATP concentration: 500 uM; one replicate. The method in brief: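 Cy3-labelled switching-strand clusters on a modified Illumina MiSeq flow-cell were annealed to 100 nM quencher-labelled ATP aptamer and imaged first in selection buffer, then after 15 min with 500 uM ATP at 22 °C. NaOH stripping and re-annealing separated each of five buffer/ATP cycles, and clusters outside 100-1000 RFU were excluded. The fluorescence ratio sums target-cycle Cy3 intensity over buffer-cycle Cy3 intensity per cluster and averages it per switch-domain sequence.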

Values marked as one replicate rest on one cluster of the flow cell; about a third of the high ones do not repeat.
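Note: ATP exposure 15 min at 22 °C before imaging.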

Take TCTTGTGAA: the switch fluorescence ratio stood at 1.01.

For the sequence AGCTGTGCGG, the switch fluorescence ratio was found to be 0.94.

Consider ACGTAGAATT, for which the switch fluorescence ratio was 1.12. As for TGAAGTTAAA, the figure is 1.02; as for GTGCTCCCCG, 1.3.

ATTTTTGTGC: the switch fluorescence ratio was 1.07. As for TTAGCACTTG, the figure is 0.971; as for GACGGTGTG, 0.953.

Consider TTCGGAGCCC, for which the switch fluorescence ratio turned out to be 2.27. As to ATGGTTGC, the switch fluorescence ratio was determined as 0.966. Regarding TTTGCAGGAA, the switch fluorescence ratio was 1.3. As for AGCTGGCACT, the figure is 1.04; as for GTAGTTTGA, 0.99; as for CACGGGAACC, 1.01.

TCGGGGATGG: the switch fluorescence ratio turned out to be 1.02. As to CGAAGACTAC, the switch fluorescence ratio is 2.33. For AAGAGAGGTA, the switch fluorescence ratio was 0.945. On to TGGGGTCGGA, for which the switch fluorescence ratio was found to be 0.953. To ACTATGCTGC belongs 1.16; to GTGAGGGATC, 1.04; to GCCTTAGGGA, 1. To GACAATGCTC belongs 1.97; to TCCTTTTAAA, 1.04; to GCGGCGGCTG, 0.992. As for CGGAGCGGGG, the figure is 1.06. On to ATAGTCGGCT, for which the switch fluorescence ratio turned out to be 1.14. For the sequence ACCTATGAGC, the switch fluorescence ratio was found to be 0.933. To AAATGGTTAT belongs 0.968; to TTACAAGCAC, 1.5; to ACGTTCCCGC, 2.27. On to CCCTGGGGTT, for which the switch fluorescence ratio was determined as 1.04. Turning to ATCTCGGTGC, the switch fluorescence ratio came out at 1.04. As for CTAAATTTCG, the switch fluorescence ratio worked out at 1.06.

In the case of TCCCGTTA, the switch fluorescence ratio stood at 1.03.

On to ACAATACTGA, for which the switch fluorescence ratio turned out to be 1.3. As for TTCCTCTTA, the figure is 1.01; as for AAACTATGAG, 1.04; as for ATAACTGTTA, 0.973. As for TAATTACTAC, the figure is 1.11; as for CTTGGAGCCA, 0.959.

For the sequence TATTCACTGG, the switch fluorescence ratio turned out to be 1.02. CCTGCACGAG: the switch fluorescence ratio came to 1.31. To TAGACCGAAG belongs 0.974; to GAGGTTGTCG, 0.963.

As to CAACTAAAAT, the switch fluorescence ratio came to 1.06. To CGGAATTTCT belongs 1.04. Take AGGCTTCCTG: the switch fluorescence ratio turned out to be 1.06.

Turning to CGATTATGAT, the switch fluorescence ratio amounted to 0.992. Turning to TACTTTCAAG, the switch fluorescence ratio was 1.04.

As for CCGTATGTAC, the switch fluorescence ratio amounted to 4.96. As for CGTATTGTAA, the figure is 0.975; as for AGGCCTGGAA, 1.03; as for AAGGTCTGTC, 1.21. For ACCACGTGGA, the switch fluorescence ratio was found to be 1.01. To GGGGCCCCGA belongs 0.941; to TCAAGTCGAA, 0.984; to CTACTCATTA, 1.04. To GCGGTAATAT belongs 1.14. For the sequence GATGTAGGCT, the switch fluorescence ratio is 0.88. To GGACTATATA belongs 1.02; to TTGCAGTCGG, 0.998. To TCTTCGATTA belongs 1.

For TTTTGTGTGT, the switch fluorescence ratio stood at 1.03. GTGTTTGCGT: the switch fluorescence ratio worked out at 0.993. TGATCCTCTG: the switch fluorescence ratio worked out at 1.

As to CCACGCCGAC, the switch fluorescence ratio came to 2.54.

Turning to AAGGAGCTG, the switch fluorescence ratio was determined as 1.09. As for AATTTCTGGA, the figure is 0.994; as for AGCGAGTTAT, 1; as for ATTTTCAATA, 0.992. Take GCTCAAGCCG: the switch fluorescence ratio was 0.977. Regarding AGAAACCCAA, the switch fluorescence ratio stood at 1.05. To TCTGAAAGGT belongs 1.01. With TAGCTAGGGG, the switch fluorescence ratio turned out to be 0.973. To ACGTCTAAGG belongs 1; to TCATCCAAAG, 1.13.

As to ATTGAAGCGC, the switch fluorescence ratio was 1.05.

As for TAACCGGTGT, the switch fluorescence ratio was found to be 1.04. Take ACCTTAGGGA: the switch fluorescence ratio came out at 1.01.
